Results reported in a collection of fitness landscapes (doi:10.1126/science.1257360).
The list shows a part of the results.

B1: PhoQ; a variant is named by its letters at X, in order, P23837 (parent)
chain: MKKLLRLFFPLSLRVRFLLATAAVVLVLSLAYGMVALIGYSVSFDKTTFRLLRGESNLFYTLAKWENNKLHVELPENIDKQSPTMTLIYDENGQLLWAQRDVPWLMKMIQPDWLKSNGFHEIEADVNDTSLLLSGDHSIQQQLQEVREDDDDAEMTHSVAVNVYPATSRMPKLTIVVVDTIPVELKSSYMVWSWFIYVLSANLLLVIPLLWVAAWWSLRPIEALAKEVRELEEHNRELLNPATTRELTSLVRNLNRLLKSERERYDKYRTTLTDLTHSLKTPLXXLQXXLRSLRSEKMSVSDAEPVMLEQISRISQQIGYYLHRASMRGGTLLSRELHPVAPLLDNLTSALNKVYQRKGVNISLDISPEISFVGEQNDFVEVMGNVLDNACKYCLEFVEISARQTDEHLYIVVEDDGPGIPLSKREVIFDRGQRVDTLRPGQGVGLAVAREITEQYEGKIVAGESMLGGARMEVIFGRQHSAPKDE

Variants of: B1
Assay: enrichment ratio after two sorts for PhoP signalling (ratio (wild type AVST 3.29)); higher = more functional
Details: with PhoP (E. coli)

Variant	enrichment ratio
THNM	8.26
PEDI	≤ 0.25
DVYD	≤ 0.25
YYVV	≤ 0.25
MVLW	≤ 0.25
YSGT	≤ 0.25
QVPR	≤ 0.25
TRYQ	≤ 0.25
SRFA	≤ 0.25
WCCW	≤ 0.25
ARRD	≤ 0.25
PIIN	≤ 0.25
TAVS	≤ 0.25
FIMQ	≤ 0.25
AWFQ	≤ 0.25
FEFP	≤ 0.25
NVTV	≤ 0.25
TYMW	≤ 0.25
QRCI	≤ 0.25
NCPM	≤ 0.25
YHTY	≤ 0.25

Variant	enrichment ratio
KMIC	≤ 0.25
SPKT	≤ 0.25
QNGT	≤ 0.25
YNIS	≤ 0.25
VRHV	≤ 0.25
WCCF	≤ 0.25
WNVM	≤ 0.25
GTCF	1.25
LLEH	≤ 0.25
ISWP	≤ 0.25
KNCY	≤ 0.25
AYYK	≤ 0.25
VQFK	≤ 0.25
KQFV	≤ 0.25
SLMH	0.659
FLQP	≤ 0.25
RPQP	≤ 0.25
MLYY	≤ 0.25
LNPC	≤ 0.25
RVIS	≤ 0.25
VTQC	≤ 0.25

Variant	enrichment ratio
VPIT	≤ 0.25
WLEF	≤ 0.25
GYEE	≤ 0.25
VLWH	≤ 0.25
AAPP	≤ 0.25
RDMS	≤ 0.25
DIWN	≤ 0.25
TVHF	≤ 0.25
FIMM	10.3
DAEW	≤ 0.25
ERTN	≤ 0.25
IHWC	≤ 0.25
NWIP	≤ 0.25
MPWF	≤ 0.25
NRYR	≤ 0.25
LQRC	≤ 0.25
MHGL	≤ 0.25
KPFL	≤ 0.25
SDHR	≤ 0.25
NLLK	≤ 0.25
QCYQ	6.25

Variant	enrichment ratio
DKKT	≤ 0.25
STMF	11.1
EKEW	≤ 0.25
ERGK	≤ 0.25
PYWK	≤ 0.25
KMFF	≤ 0.25
SARN	≤ 0.25
RCSP	≤ 0.25
GISE	4.03
DVFL	≤ 0.25
HCMR	≤ 0.25
FGGI	≤ 0.25
KVAD	≤ 0.25
IMGY	≤ 0.25
WDMF	≤ 0.25
VCHW	≤ 0.25
HEVW	≤ 0.25
HWNN	≤ 0.25
YFNM	≤ 0.25
VTTR	≤ 0.25
NQNC	≤ 0.25
